# Experimental data: patent US20190367516A1 (Bayer Pharma Aktiengesellschaft, priority 2015, published 2019)
# Biological target: T1, human M2 receptor (Homo sapiens, UniProt P08172)
# T1 sequence (P08172 1-466): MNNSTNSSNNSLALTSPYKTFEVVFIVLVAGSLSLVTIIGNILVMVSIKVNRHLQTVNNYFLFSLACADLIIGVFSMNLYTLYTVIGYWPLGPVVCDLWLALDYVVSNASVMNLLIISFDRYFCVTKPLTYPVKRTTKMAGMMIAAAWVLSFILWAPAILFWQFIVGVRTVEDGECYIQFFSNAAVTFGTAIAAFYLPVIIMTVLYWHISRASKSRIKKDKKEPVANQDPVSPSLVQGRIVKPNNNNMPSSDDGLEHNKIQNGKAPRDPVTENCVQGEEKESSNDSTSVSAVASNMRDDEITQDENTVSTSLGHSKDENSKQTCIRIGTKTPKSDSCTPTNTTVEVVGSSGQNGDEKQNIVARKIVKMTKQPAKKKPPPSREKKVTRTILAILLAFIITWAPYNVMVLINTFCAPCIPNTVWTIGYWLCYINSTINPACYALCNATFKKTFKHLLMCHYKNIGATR
# Conditions: read-out: Efficiency, M2-GIRK1/4 activation test; boosting of the acetylcholine effect at an EC20 acetylcholine concentration
row,Emax [%],SMILES
1,99.5,"CC[C@@H](NC(=O)c1cn(-c2c(F)cccc2Cl)c2nc(N3C[C@@H](O)CC3=O)ccc2c1=O)C(F)(F)F [Example 307, 1-(2-Chloro-6-fluorophenyl)-7-[(4S)-4-hydroxy-2-oxopyrrolidin-1-yl]-4-oxo-N-[(2R)-1,1,1-trifluorobutan-2-yl]-1,4-dihydro-1,8-naphthyridine-3-carboxamide]"
2,96,"CC[C@@H](NC(=O)c1cn(-c2c(F)cccc2Cl)c2nc(N3CC[C@H](O)C3=O)ccc2c1=O)C(F)(F)F [Example 309, 1-(2-Chloro-6-fluorophenyl)-7-[(3S)-3-hydroxy-2-oxopyrrolidin-1-yl]-4-oxo-N-[(2R)-1,1,1-trifluorobutan-2-yl]-1,4-dihydro-1,8-naphthyridine-3-carboxamide]"
3,96,"C[C@@H](COC(F)(F)F)NC(=O)c1cn(-c2c(F)cc(F)cc2Cl)c2nc(N3C[C@@H](O)[C@H](O)C3)ccc2c1=O [Example 322, 1-(2-Chloro-4,6-difluorophenyl)-7-[(3R,4R)-3,4-dihydroxypyrrolidin-1-yl]-4-oxo-N-[(2S)-1-(trifluoromethoxy)propan-2-yl]-1,4-dihydro-1,8-naphthyridine-3-carboxamide]"
4,97.3,"CC[C@@H](NC(=O)c1cn(-c2c(F)cc(F)cc2F)c2nc(N3CCC(C)(O)C3)ccc2c1=O)C(F)(F)F (stereo partly drawn) [Example 324, 7-[3-Hydroxy-3-methylpyrrolidin-1-yl]-4-oxo-N-[(2R)-1,1,1-trifluorobutan-2-yl]-1-(2,4,6-trifluorophenyl)-1,4-dihydro-1,8-naphthyridine-3-carboxamide]"
5,95,"C[C@H](NC(=O)c1cn(-c2c(F)cccc2F)c2nc(N3C[C@@H](O)CC3=O)ccc2c1=O)C(F)(F)F [Example 329, 1-(2,6-Difluorophenyl)-7-[(4S)-4-hydroxy-2-oxopyrrolidin-1-yl]-4-oxo-N-[(2S)-1,1,1-trifluoropropan-2-yl]-1,4-dihydro-1,8-naphthyridine-3-carboxamide]"
6,93.3,"C[C@H](NC(=O)c1cn(-c2c(F)cc(F)cc2F)c2nc(N3C[C@@H](O)CC3=O)ccc2c1=O)C(F)(F)F [Example 330, 7-[(4S)-4-Hydroxy-2-oxopyrrolidin-1-yl]-4-oxo-1-(2,4,6-trifluorophenyl)-N-[(2S)-1,1,1-trifluoropropan-2-yl]-1,4-dihydro-1,8-naphthyridine-3-carboxamide]"
7,96,"CC[C@H](NC(=O)c1cn(-c2c(F)cc(F)cc2F)c2nc(N3C[C@@](C)(O)C[C@H]3C)ccc2c1=O)C(F)(F)F [Example 331, 7-[(2R,4S)-4-Hydroxy-2,4-dimethylpyrrolidin-1-yl]-4-oxo-N-[(2S)-1,1,1-trifluorobutan-2-yl]-1-(2,4,6-trifluorophenyl)-1,4-dihydro-1,8-naphthyridine-3-carboxamide]"
8,84,"CC[C@H](NC(=O)c1cn(-c2c(F)cc(F)cc2Cl)c2nc(N3C[C@@](C)(O)C[C@H]3C)ccc2c1=O)C(F)(F)F [Example 334, 1-(2-Chloro-4,6-difluorophenyl)-7-[(2R,4S)-4-hydroxy-2,4-dimethylpyrrolidin-1-yl]-4-oxo-N-[(2S)-1,1,1-trifluorobutan-2-yl]-1,4-dihydro-1,8-naphthyridine-3-carboxamide]"
9,94.5,"C[C@H](NC(=O)c1cn(-c2c(F)cc(F)cc2Cl)c2nc(N3CCC(C)(C)C3=O)ccc2c1=O)C(F)(F)F [Example 335, 1-(2-Chloro-4,6-difluorophenyl)-7-(3,3-dimethyl-2-oxopyrrolidin-1-yl)-4-oxo-N-[(2S)-1,1,1-trifluoropropan-2-yl]-1,4-dihydro-1,8-naphthyridine-3-carboxamide]"
10,92,"CC[C@H](NC(=O)c1cn(-c2c(F)cc(F)cc2Cl)c2nc(N3CCC(C)(C)C3=O)ccc2c1=O)C(F)(F)F [Example 336, 1-(2-Chloro-4,6-difluorophenyl)-7-(3,3-dimethyl-2-oxopyrrolidin-1-yl)-4-oxo-N-[(2S)-1,1,1-trifluorobutan-2-yl]-1,4-dihydro-1,8-naphthyridine-3-carboxamide]"

# Second part, the compound before the results:
row,SMILES,Emax [%]
1,"O=C(NC(c1ccccc1Cl)C(F)(F)F)c1cn(-c2ccc(F)cc2F)c2nc(N3CC[C@H](O)C3=O)ccc2c1=O (stereo partly drawn) [Example 298, N-[1-(2-Chlorophenyl)-2,2,2-trifluoroethyl]-1-(2,4-difluorophenyl)-7-[(3S)-3-hydroxy-2-oxopyrrolidin-1-yl]-4-oxo-1,4-dihydro-1,8-naphthyridine-3-carboxamide]",94
2,"O=C(NC(c1ccccc1Cl)C(F)(F)F)c1cn(-c2ccc(F)cc2F)c2nc(N3CC[C@@H](O)C3=O)ccc2c1=O (stereo partly drawn) [Example 299, N-[1-(2-Chlorophenyl)-2,2,2-trifluoroethyl]-1-(2,4-difluorophenyl)-7-[(3R)-3-hydroxy-2-oxopyrrolidin-1-yl]-4-oxo-1,4-dihydro-1,8-naphthyridine-3-carboxamide]",92
3,"O=C(NC(c1c(F)cccc1F)C(F)(F)F)c1cn(-c2ccc(F)cc2F)c2nc(N3CC[C@@H](O)C3=O)ccc2c1=O (stereo partly drawn) [Example 300, 1-(2,4-Difluorophenyl)-N-[1-(2,6-difluorophenyl)-2,2,2-trifluoroethyl]-7-[(3R)-3-hydroxy-2-oxopyrrolidin-1-yl]-4-oxo-1,4-dihydro-1,8-naphthyridine-3-carboxamide]",95
4,"CC[C@@H](NC(=O)c1cn(-c2c(F)cccc2Cl)c2nc(N3CC[C@@H](O)C3=O)ccc2c1=O)C(F)(F)F [Example 308, 1-(2-Chloro-6-fluorophenyl)-7-[(3R)-3-hydroxy-2-oxopyrrolidin-1-yl]-4-oxo-N-[(2R)-1,1,1-trifluorobutan-2-yl]-1,4-dihydro-1,8-naphthyridine-3-carboxamide]",100
5,"CC[C@@H](NC(=O)c1cn(-c2ccc(F)cc2F)c2nc(N3CCNC3=O)ccc2c1=O)C(F)(F)F [Example 320, 1-(2,4-Difluorophenyl)-4-oxo-7-(2-oxoimidazolidin-1-yl)-N-[(2R)-1,1,1-trifluorobutan-2-yl]-1,4-dihydro-1,8-naphthyridine-3-carboxamide]",90
6,"CC[C@@H](NC(=O)c1cn(-c2ccc(F)cc2F)c2nc(N3CCN(C)C3=O)ccc2c1=O)C(F)(F)F [Example 321, 1-(2,4-Difluorophenyl)-7-(3-methyl-2-oxoimidazolidin-1-yl)-4-oxo-N-[(2R)-1,1,1-trifluorobutan-2-yl]-1,4-dihydro-1,8-naphthyridine-3-carboxamide]",58.5
7,"O=C(N[C@@H](C1CC1)C(F)(F)F)c1cn(-c2c(F)cc(F)cc2F)c2nc(N3CCNC3=O)ccc2c1=O [Example 323, N-[(1 S)-1-Cyclopropyl-2,2,2-trifluoroethyl]-4-oxo-7-(2-oxoimidazolidin-1-yl)-1-(2,4,6-trifluorophenyl)-1,4-dihydro-1,8-naphthyridine-3-carboxamide]",94.6
8,"CC[C@H](NC(=O)c1cn(-c2c(F)cccc2F)c2nc(N3CCC(C)(O)C3)ccc2c1=O)C(F)(F)F (stereo partly drawn) [Example 327, 1-(2,6-Difluorophenyl)-7-[3-hydroxy-3-methylpyrrolidin-1-yl]-4-oxo-N-[(2S)-1,1,1-trifluorobutan-2-yl]-1,4-dihydro-1,8-naphthyridine-3-carboxamide]",95.5
9,"CC[C@@H](NC(=O)c1cn(-c2ccc(F)cc2F)c2nc(N3CC(C)(OC)C3)ccc2c1=O)C(F)(F)F [Example 328, 1-(2,4-Difluorophenyl)-7-(3-methoxy-3-methyazetidin-1-yl)-4-oxo-N-[(2R)-1,1,1-trifluorobutan-2-yl]-1,4-dihydro-1,8-naphthyridine-3-carboxamide]",100
